# Test results published in the RNAGym collection of RNA variant scans (doi:10.1093/nar/gkz1192).
# Read counts are not given, so values of variants with three or more changes are uncertain.
# B1: CPEB3 Ribozyme (parent)
# chain: UAACAGGGGGCCACAGCAGAAGCGUUCACGUCGCAGCCCCUGUCAGAUUCUGGUGAAUCUGCGAAUUCUGCUGUAUAUCUC
# Variants of: B1
# Test: self-cleavage, relative activity (ratio to wild type); higher = more cleavage; in vitro, sequencing
# Procedure, shortened: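 For each CPEB3 ribozyme variant, relative activity is its cleaved/total read fraction divided by the unmutated ribozyme's. Barcoded error-prone PCR libraries were transcribed by T7 RNA polymerase (5 hours, 37°C) and held in DNase I for 15 min before an EDTA stop, with cleavage occurring throughout. Template-switching reverse transcription and Illumina sequencing were used to read the RNAs. A 5-read minimum applied, and results are the mean of three batches.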
row,Variant,self-cleavage
1,UAACUGGGGGCCACAGCGGAAGCGUUCACGUCGCAGCCCCUGUCAGAUUCUGGUGAAUCUGCGAAUUCUGCCGUAUAUCUC,0.69
2,UAACUGGGGGCCACAGCUGAAGCGUUCACGUCGCAGCCCCUGACAGAUUCUGGUGAAUCUGCGAAUUCUGCUGUAUAUCUC,0.78
3,UAACUGGGGGCCACAGCUGAAGCGUUCACGUCGCAGCCCCUGCCAGAUUCUGGUGAAUCUGCGAAUUCUGCUGUAUAUCUC,0.3
4,UAACUGGGGGCCACAGCAGCAGCGUUCACGUCGCAGCCCCUGUCAGGUUCUGGUGAAUCUGCGAGUUCUGCUGUAUAACUC,0.09
5,UAACUGGGGGCCACAGCAGGGGCGUUCACGUCGCAGCCCCUGUCAGAUUCCGGUGAAUCUGCGAAUUCUGCUGUAUAUCUC,0.11
6,UAACUGGGGGCCACAGCAGGAGCGUUCACGUCGCGGCCCCUUUCAGAUUCUGGUGAAUCUGCGUACUCUGCUGUAUAUCUC,0.1
7,UAACUGGGGGCCACAGCAGGAGCGUUCACGUCGCAGCCCCUGUCAGAUUCUGGUGAGUCUGCGAAUUCUGCUGUAUAUCUC,0.53
8,UAACUGGGGGCCACAGCAGGAGCGUUCACGUCGCAGCCCAUGUCAGAUUCUGGUGAAUCUGCGGACUCUGCUGUAUAUCUC,0.28
9,UAACUGGGGGCCACAGCAGGAGCUUUCGCGUCGCAGCCCCUGUCAGAUUCUGGUGAAUCUGCGAAUUCCGCUGUAUUUCUC,0.09
10,UAACUGGGGGCCACAGCAGGAGCGCUCACGUCGCAGCCCCUGUCAGAUUCUGGUGGAUCUGCGAAUUCUGCUGUAUACUUC,0.32
11,UAACUGGGGGCCACAGCAGGAGCGCUCACGCCGCUGCCCCUGUCAGAUUCUGGUGAAUCUGCGAAUUCUGCUGUAUAACUC,0.06
12,UAACUGGGGGCCACAGCAGGAGCGUUCACGCCGCUGCCCCUGUCAGAUUCUGAGGAAUCUGCGUAUUCUGCUGUAUAUCUC,0.18
13,UAACUGGGGGCCACAGCAGGAGCGUUCACGCCGCAGCCCCUGUCAGGUUCUGGUGAAUCUGCGAAUUCUGCCGUAUAUCAC,0.96
14,UAACUGGGGGCCACAGCAGGAGCGUUCACGUCGCAGCCCCUGUCAGAUUCAGGUGAAUCUGCGAAUUCUGCUGUAUAUCUC,0.86
15,UAACUGGGGGCCACAGCAGUAGCGUUCUCGCCGCAGCCCCUGUCAGAUUCUGGUGAAUCUGCGAACUCUGCUGUAUAUCUC,0.25
16,UAACUGGGGGCCACAGCAGUAGCGUUCACGUCGCAGCCCCUGUCAGAUUCUGGUGAAUCUGCGAAUUCUGCUGUGUAUCUC,0.16
17,UAACUGGGGGCCACAGCAGUAGCGUUCACGUCGCAGCCCCAGUCAGAUUCUGGUGAAUCUGCGAAUACUGCUGUAUAUCUC,0.32

row,Variant,self-cleavage
1,UAACUGGGGGCCACAGCAGUAGCGUUCACGUCGCAGCCCCUGUCAGAAUCUGGUGAAUCUGCGAAUUCUGCUGUAUAUCUC,0.11
2,UAACUGGGGGCCACAGCAGUAGCGUUCACGUCGCAGCCCCUGUCAGAUUCUGGAGAAUCUACGAAUUCUGCUGUAUACCUC,0.32
3,UAACUGGGGGCCACAGCAGACGCGUUCACGUCGCAGCCCCUGUCUGAUUCCGCUGAAUCUGCGAAUUCUGCUGUAUAUCUC,0.24
4,UAACUGGGGGCCACAGCAGAGGCGUUCUCGUCGCGGCCCCUGUCAGAUUCUGGUGAAUCUGCGAAUCCUGCUGUAUAUCUC,0.38
5,UAACUGGGGGCCACAGCAGAGGCGUUCACGUCGCGGCCCCUGACAGAUUCUGGUGAACCUGCGAAUUCAGCUGUAUAUCUC,0.25
6,UAACUGGGGGCCACAGCAGAGGCGUUCACGUCGCAGCCCCUGUCAGAUUCCGGUGAAUCUGCGAAUUCUGCUGUAUAUCUC,0.78
7,UAACUGGGGGCCACAGCAGAGGCGUUCACGUCGCAGCCCCUGUCAGAUUCUGGUGAAUCUGCGAAUACUGCUGUAUAUCUC,0.19
8,UAACUGGGGGCCACAGCAGAGGCGUUCACGUCGCAGCCCCUGUCAGAUUCUGGUGAAUCUGCGAAUUCAGCUGUACAUCUC,0.27
9,UAACUGGGGGCCACAGCAGAUGCGUUCACGUGGCAGCCCCUGUCAGAUUCUGGUGAAUCUGCGAAUCCUGCUGUAUAUCUC,0.06
10,UAACUGGGGGCCACAGCAGAUGCGUUCACGUCGCAGCACCCGUCAGAUUCUGGUGAGUCUGCGAAUUCUGCUGUAUAUCUC,0.28
11,UAACUGGGGGCCACAGCAGAUGCGUUCACGUCGCAGCCCCCGUCAGAUUCUGAUGAAUCUGCGGAUUCUGCCGUAUAUCUC,0.14
12,UAACUGGGGGCCACAGCAGAAGCGUUCCCGUCGCAGCCCCGGUCAGAUUCUGGUGAAUCUGCGAUUUCUGCUGCAUAUCAC,0.14
13,UAACUGGGGGCCACAGCAGAAGCGUUCGCGUCGCAGCCACUGUCAGAUUCUGGCGAAUCAGCGAAUUCUGCUGCAUAUCUC,0.23
14,UAACUGGGGGCCACAGCAGAAGCGUUCGCGUCGCAGCCCCUGUCAGAUUCUGGUGAAUCUGCGAAUUCUGCUGUAUAUAUC,0.99
15,UAACUGGGGGCCACAGCAGAAGCGUUCGCGACGCAGCCCCUGUCAGAUUCUGGUGAGUCUGCGAAUUCAGCUGCAUAUCUC,0.11
16,UAACUGGGGGCCACAGCAGAAGCGUUCGCGUCGCAGCCCCAGUCGGAUUCUGGUGAAUCUGCGAAUUCUGCUGUAUAUCUC,0.09
17,UAACUGGGGGCCACAGCAGAAGCGUUCGCGUCGCAGCCCCUGUCAGAUUCUGGUGAAUCUGCGAAUUCAGCUGUAUAUCUC,0.31
